Out of some 48,000 compounds screened, about 550 (1.1%) were called active. Not shown: some 4% with an inconclusive outcome. Cut-off read from the data, not from the text of the source: active = potency below about 15 µM; inconclusive = mostly about 16 µM to 33 µM; inactive = weaker than that. The list shows a part of the results.
Molecular target: Lysosomal acid glucosylceramidase (Homo sapiens) (UniProt P04062)
Test: Glucocerebrosidase;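 note: the screen sought inhibitors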
Details: purified enzyme, resorufin glucoside fluorescence (screen aimed at inhibitors), 20 min
How it was run: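 Compounds titrated against 0.2 nM normal enzyme, 30 uM resorufin beta-D-glucopyranoside substrate, citrate/phosphate buffer with taurocholate and tween-20, pH 5.9. Reaction ran 20 min at room temperature; fluorescence (Ex 548/Em 600) gave AC50.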
Potency is the fitted concentration of half-maximal effect.

Sequence of UniProt P04062 (P04062 whole entry, looked up): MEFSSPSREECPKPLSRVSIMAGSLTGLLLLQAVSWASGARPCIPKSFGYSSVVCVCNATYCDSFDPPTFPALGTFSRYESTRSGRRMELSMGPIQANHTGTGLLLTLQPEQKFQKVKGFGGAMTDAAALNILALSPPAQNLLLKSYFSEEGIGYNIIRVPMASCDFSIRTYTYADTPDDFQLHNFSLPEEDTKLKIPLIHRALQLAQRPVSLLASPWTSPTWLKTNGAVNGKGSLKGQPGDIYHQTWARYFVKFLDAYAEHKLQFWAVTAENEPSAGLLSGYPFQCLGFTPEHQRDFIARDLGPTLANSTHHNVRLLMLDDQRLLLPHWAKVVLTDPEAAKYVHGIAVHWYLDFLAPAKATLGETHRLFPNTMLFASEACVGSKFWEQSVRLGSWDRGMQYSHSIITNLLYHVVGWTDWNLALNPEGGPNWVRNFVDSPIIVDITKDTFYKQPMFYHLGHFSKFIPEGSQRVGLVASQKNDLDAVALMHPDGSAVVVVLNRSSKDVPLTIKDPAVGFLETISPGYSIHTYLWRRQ

Row | SMILES | Potency
1 | COc1ccc(NC(=O)C2CCCN(S(=O)(=O)c3c(C)n[nH]c3C)C2)cc1 (stereo not drawn) | inactive: > 76.9 µM
2 | Cc1nnc(SCC(=O)N(C)Cc2ccccc2)[nH]c1=O | inactive: > 76.9 µM
3 | CCCNS(=O)(=O)c1ccc(CCC(=O)N2CCCCC2)cc1 | inactive: > 76.9 µM
4 | Cc1ccc(CNC(=O)C2c3ccccc3C(=O)N(C)C2c2c[nH]c3ccccc23)o1 (stereo not drawn) | inactive: > 76.9 µM
5 | Cc1ccc(-c2[nH]nc3c2C(c2ccc(OC(=O)N4CCOCC4)cc2)C(C#N)=C(N)O3)cc1 (stereo not drawn) | inactive: > 76.9 µM
6 | O=c1c2cn[nH]c2nc(SCc2ccc3c(c2)OCCO3)n1-c1ccccc1 | inactive: > 76.9 µM
7 | COc1ccc(C(=O)Nc2ccccc2C(=O)NC(C(=O)NCc2ccco2)C(C)C)cc1 (stereo not drawn) | inactive: > 76.9 µM
8 | O=c1c2ccccc2nc(-c2ccccc2)n1CCN1CCOCC1 | inactive: > 76.9 µM
9 | Cc1ccc(-c2cc(C(F)F)nc(N3CCC(C)CC3)n2)cc1 | inactive: > 76.9 µM
10 | O=C(NC1CC2CCCC(C1)N2C(=O)NC1CCCCC1)c1ccccc1 (stereo not drawn) | inactive: > 76.9 µM
11 | COc1ccc(Br)cc1S(=O)(=O)N1CCOCC1 | inactive: > 76.9 µM
12 | Cc1cc(Cl)ccc1OCC(=O)N1C(C)CCCC1C (stereo not drawn) | inactive: > 76.9 µM
13 | Cn1nnnc1P(=O)(c1ccccc1)c1ccccc1 | inactive: > 76.9 µM
14 | CCOC(=O)c1c(N)nn(C(=O)C(C)C)c1-c1ccccc1 | inactive: > 76.9 µM
15 | CC(=O)CC1(C)OC(N)=C(C#N)C1(C#N)C#N (stereo not drawn) | inactive: > 76.9 µM
16 | Cc1cc(C)cc(N(CC(=O)NCC2CCCO2)C(=O)CCC(=O)Nc2cc(C)on2)c1 (stereo not drawn) | inactive: > 76.9 µM
17 | COc1ccccc1N1CCN(C(=O)C2CCN(S(=O)(=O)N3CCOCC3)CC2)CC1 | inactive: > 76.9 µM
18 | CCC(CC)C(=O)Nc1nnc(SCC(=O)N2CCN(c3ccccc3OC)CC2)s1 | inactive: > 76.9 µM
19 | COc1ccc(-n2nnnc2SCC(=O)NCc2ccco2)cc1OC | inactive: > 76.9 µM
20 | COCCn1c(=N)c(C(=O)NCc2ccco2)cc2c(=O)n3ccccc3nc21 | inactive: > 76.9 µM
21 | Cc1ccc(Nc2nnc(SCC(=O)NCc3ccco3)s2)cc1 | inactive: > 76.9 µM
22 | CCOCCCNC(=O)C1CCN(S(=O)(=O)N2CC(C)CC(C)C2)CC1 (stereo not drawn) | inactive: > 76.9 µM

Row | SMILES | Potency
23 | Cc1nn(C)c(C)c1CNC(=O)c1cc2n(n1)C(C(F)(F)F)CC(c1cccs1)N2 (stereo not drawn) | inactive: > 76.9 µM
24 | CCOC(=O)C(NC(=O)C1CCCN1C(=O)OCc1ccccc1)C(=O)OCC (stereo not drawn) | inactive: > 76.9 µM
25 | COc1ccc(C(CNC(=O)CN2C(=O)NC3(CC(C)CC(C)(C)C3)C2=O)N2CCOCC2)cc1 (stereo not drawn) | inactive: > 76.9 µM
26 | C=CCN(C(=O)CNC(=O)c1ccco1)C(C(=O)NC1CCCCC1)c1ccccc1F (stereo not drawn) | inactive: > 76.9 µM
27 | CCOC(=O)c1ccc(N2C(=O)CC(N3CCC(O)(c4ccc(Cl)cc4)CC3)C2=O)cc1 (stereo not drawn) | inactive: > 76.9 µM
28 | COc1ccc(C2CC(=O)c3cnc(NC(=O)c4cc(OC)cc(OC)c4)nc3C2)cc1 (stereo not drawn) | inactive: > 76.9 µM
29 | Cc1cc(C)c2c(=O)[nH]n(C3CC(C)N(C)CC3C)c2n1 (stereo not drawn) | inactive: > 76.9 µM
30 | CCOC(=O)N1CCN(C(=O)CCCn2c(=O)[nH]c3ccccc3c2=O)CC1 | inactive: > 76.9 µM
31 | O=C(O)C1CCN(Cc2cnn(-c3ccccc3)c2-n2cccc2)CC1 | inactive: > 76.9 µM
32 | Cc1cccc(-n2nnnc2SCn2nnc3ccccc3c2=O)c1 | inactive: > 76.9 µM
33 | N#Cc1c(/N=C/c2ccco2)oc(-c2ccccc2)c1-c1ccccc1 | inactive: > 76.9 µM
34 | CCOc1ccc(OCC(=O)N2CCOCC2)cc1 | inactive: > 76.9 µM
35 | COc1cc(OC)nc(NC2OC(=O)c3ccccc32)n1 (stereo not drawn) | inactive: > 76.9 µM
36 | CC(O)c1ccc2c(c1)OCCOCCN(C)CCOCCO2 (stereo not drawn) | inactive: > 76.9 µM
37 | CC1CN(C(=O)CSc2nnc(-c3ccc(Cl)cc3)n2C)CC(C)O1 (stereo not drawn) | inactive: > 76.9 µM
38 | COCCNC(=O)C(c1ccc(C)o1)N(Cc1cccs1)C(=O)c1snc(C(N)=O)c1N (stereo not drawn) | inactive: > 76.9 µM
39 | O=C(c1cccnc1)N1C2C=CC(C2)C1(C(F)(F)F)C(F)(F)F (stereo not drawn) | inactive: > 76.9 µM
40 | COc1ccc(N2CCN(C(=O)COc3ccc4ccccc4c3)CC2)cc1 | inactive: > 76.9 µM
41 | N#CC(C(=O)NC1CC1)c1nc2ccccc2nc1N1CCCC1 (stereo not drawn) | inactive: > 76.9 µM
42 | COC(=O)c1cccc(NC(=O)CSc2nnnn2C)c1 | inactive: > 76.9 µM
43 | COc1cc(Cn2c(N)c(C#N)c3nc4ccccc4nc32)cc(OC)c1 | inactive: > 76.9 µM
44 | Cc1noc(C)c1CSc1nc2ccccc2s1 | inactive: > 76.9 µM

Row | SMILES | Potency
45 | O=C(Cn1cccc1)Nc1ccc(OC(F)(F)F)cc1 | active: 15.2 µM
46 | N#Cc1ccc(CSc2nnc(-c3ccncc3)n2CCc2ccccc2)cc1 | inactive: > 76.9 µM
47 | CC(C)NC(=O)c1ccc2c(c1)N(CC(=O)N1CCOCC1)C(=O)C(C)(C)O2 | inactive: > 76.9 µM
48 | CCOC(=O)C1=C(C)N=C2SCCC(=O)N2C1c1cc(Br)ccc1OC (stereo not drawn) | inactive: > 76.9 µM
49 | c1ccc2oc(SCc3cn4ccccc4n3)nc2c1 | inactive: > 76.9 µM
50 | COc1cc(OC)cc(-c2nnc(SCc3cccnc3)o2)c1 | inactive: > 76.9 µM
51 | CC(=O)c1cccc(NC(=O)c2cccc(S(=O)(=O)N(C)C)c2)c1 | inactive: > 76.9 µM
52 | CC1CCN(C(=O)Cn2c(=O)n(Cc3ccc4c(c3)OCO4)c(=O)c3ccccc32)CC1 | inactive: > 76.9 µM
53 | CCOC(=O)CCC(=O)N1CCOCCN(C(=O)CCC(=O)OCC)CCOCC1 | inactive: > 76.9 µM
54 | CC1CCCC(NC(=O)CSc2nnnn2C)C1C (stereo not drawn) | inactive: > 76.9 µM
55 | Cc1c(C#N)c2ncnc(N)c2n1-c1ccccc1 | inactive: > 76.9 µM
56 | COc1nc(N2CCOCC2)nc(-n2cccc2)n1 | inactive: > 76.9 µM
57 | Cc1ccc(-n2c(Cc3cccs3)nnc2SCC(=O)OC(C)C)cc1 | inactive: > 76.9 µM
58 | CCCN1C(=O)C(NC(=O)c2ccncc2)(C(F)(F)F)C2=C1CC(C)(C)CC2=O (stereo not drawn) | inactive: > 76.9 µM
59 | O=C(CSc1nnc(-c2ccccn2)n1Cc1ccco1)c1ccc(-c2ccccc2)cc1 | inactive: > 76.9 µM
60 | CCN(Cc1ccncc1)S(=O)(=O)c1ccc(C(C)=O)cc1 | inactive: > 76.9 µM
61 | COc1ccc(OC)c2c(C)cc(N3CCN(C(=O)c4ccc(F)cc4)CC3)nc12 | inactive
62 | C/C(N)=C(/C#N)C(=O)CSc1nnc(Nc2cccc(C)c2)s1 | inactive: > 76.9 µM
63 | CCCNC(=O)NC1C(NC(=O)NCCC)N(C)C(=O)N1C (stereo not drawn) | inactive: > 76.9 µM
64 | CC(NC(N)=O)C12CC3CC(CC(C3)C1)C2 (stereo not drawn) | inactive: > 76.9 µM
65 | Cc1nc2c(C(=O)N3CCCCC3)cnn2c(C)c1Cc1ccccc1F | inactive: > 76.9 µM
66 | CC(C)OC(=O)CSc1nnc(-c2ccc(Cl)cc2Cl)o1 | inactive: > 76.9 µM

Row | SMILES | Potency
67 | c1ccc(CCC2=NCCn3cccc32)cc1 | inactive: > 76.9 µM
68 | O=C(NCC1CCCO1)C1CCCCN1S(=O)(=O)c1ccc(F)cc1 (stereo not drawn) | inactive: > 76.9 µM
69 | CCOC(=O)Cn1nnnc1CN(Cc1ccc(OC)cc1)Cc1cc2cc(C)ccc2[nH]c1=O | inactive
70 | COC(=O)c1ccccc1NC(=O)CN(C)S(=O)(=O)c1ccc(OC)c(C)c1 | inactive: > 76.9 µM
71 | CCC(=O)Nc1ccc(N2CCN(Cc3ccccc3)CC2)cc1 | inactive: > 76.9 µM
72 | CCC(=O)N1c2ccccc2NC2=C(C(=O)CCC2)C1c1ccc(N(C)C)cc1 (stereo not drawn) | inactive: > 76.9 µM
73 | CN(C)c1nc(C(=O)Nc2ccccc2)nc(N(C)C)n1 | inactive: > 76.9 µM
74 | Cc1ccc(SCCC(=O)N(C)C)cc1 | inactive: > 76.9 µM
75 | Cc1cccc(NC(=O)NCC(c2cccnc2)N2CCOCC2)c1 (stereo not drawn) | inactive: > 76.9 µM
76 | Cc1ccc2[nH]c(=O)c(CNC(C)C)cc2c1 | inactive: > 76.9 µM
77 | Cc1ccc(-n2[nH]c(C)c(/C=N/n3c(C)nc4ccccc4c3=O)c2=O)cc1 | inactive: > 76.9 µM
78 | Cc1oc(-c2cccs2)[n+]([O-])c1C | inactive: > 76.9 µM
79 | O=C(O)CCCCCn1c(SCC(=O)N2CCCC2)nc2ccsc2c1=O | inactive: > 76.9 µM
80 | CCOC(=O)c1cccc(N2C(=O)c3ccccc3S2(=O)=O)c1 | inactive: > 76.9 µM
81 | O=C(CSc1nc2ccccc2o1)Nc1ccc(N2CCOCC2)cc1 | inactive: > 76.9 µM
82 | CC(C)C(=O)Nc1cc2c(cc1C(=O)c1ccccc1)OCCO2 | inactive: > 76.9 µM
83 | CS(=O)c1nc(-c2ccc(Br)cc2)cc(-c2ccccc2)c1C#N (stereo not drawn) | inactive: > 76.9 µM
84 | COc1ccc(NC(=O)c2cc(Cl)ccc2NC(=O)c2ccco2)c(OC)c1 | inactive: > 76.9 µM
85 | COc1ccc2[nH]c(=O)c(CN(C)C(=O)C3CCCCC3)cc2c1 | inactive: > 76.9 µM
86 | O=C(Nc1nc(-c2cccs2)cs1)c1ccc(S(=O)(=O)N2CCCC2)cc1 | inactive: > 76.9 µM
87 | COCCn1c(C)cc(C(=O)COC(=O)CCc2ccc(S(=O)(=O)N3CCOCC3)cc2)c1C | inactive: > 76.9 µM
88 | CCOC(=O)N1CC=C2C(C#N)=C(N)C(C#N)(C#N)[C@H](c3ccc(OC(C)C)c(OCC)c3)[C@H]2C1 | inactive: > 76.9 µM
